# Results taken from publication PMC3104040 (Bioorganic & medicinal chemistry, 2011).
# Columns and labels:
# [1] = s9, 1.5 h
SMILES,time to 50% loss in monkey S9 [min],"% of initial compound remaining, human and guinea pig liver S9 [1]","% intact compound remaining, monkey S9 (s9, 1.5 h)"
"Nc1ccn(C[C@@H](CO)OCP(=O)(O)OCCCOCCCCCCCCCCCCCCC2CC2)c(=O)n1 [14-cp-TDP-CDV, 14-cyclopropyl-tetradecyloxypropyl-cidofovir]",45 to 70,–,–
"CC(C)CCCCCCCCCCCCCCOCCCOP(=O)(O)CO[C@H](CO)Cn1ccc(N)nc1=O [Compound 15M-HDP-CDV, 15-methyl-hexadecyloxypropyl-cidofovir]",45 to 70,–,–
"CCCCCCCCCCCCCCCCOCCCOP(=O)(O)CO[C@H](CO)Cn1ccc(N)nc1=O [HDP-CDV, hexadecyloxypropyl-cidofovir]",20,83-97%,4-16%
